“Also recorded” adds a separate entry of the source.
How the values were obtained:
Assay type in all cases: cell-based, human
VCaP cells [1] = experiment: 2D cell proliferation assay (CellTiter-Glo); details: 10% FCS-containing growth medium, 5 days, single agent or combination
Experimental: (§1) The following method was used to determine the inhibitory effect of IGF ligand-neutralizing mAbs and androgen signaling inhibitors on the growth of prostate cancer cell lines. Assays were performed in cell growth medium containing 10% serum.
(§2) Adherent cells were detached with trypsin/EDTA solution (GIBCO, #043-9031 FU), resuspended in growth medium, centrifuged, resuspended in assay medium (supplemented with 10% heat inactivated FCS and 2 mM L-glutamine) and diluted to 5,000-40,000 cells per mL. 100 μL/well cell suspension was added to each well of a sterile flat-bottom white 96-well plate (PerkinElmer, #6005280) and plates were incubated overnight in a humidified incubator set at +37° C. and 5% CO2. On the next day supernatants were aspirated and 35 μL/well assay medium was added to all wells.
(§3) Serial dilutions of IGF mAb_1 and mAb_2 (1 μM highest concentration), MDV-3100 (10 μM highest concentration), abiraterone acetate (100 μM highest concentration) were prepared on a separate plate in assay medium (no growth factors or hormones supplemented). All agents were tested as single agents or in combination. All samples were tested in triplicate wells (100 μL/well assay). Plates were incubated for 5 days in a humidified incubator at +37° C. and 5% CO2. After this incubation period, CellTiter-Glo buffer, substrate and test plates were equilibrated to RT. CellTiter-Glo is a bioluminescent assay (Promega, #G7571) designed to determine the number of viable cells in culture, in which the generation of a luminescent signal is proportional to the amount of ATP present in cells. 100 μL of freshly mixed CellTiter-Glo reagent was added to each well. After 2 min on an orbital shaker (MTS 2/4, IKA) and 10 min incubation at RT, luminescence was recorded (luminescence reader (Genios Pro, Tecan or Victor X4, Perkin Elmer), integration time 1 sec).

DUCaP cells = experiment: 2D cell proliferation assay (CellTiter-Glo); details: 10% FCS-containing growth medium, 5 days, single agent or combination
Experimental: as §1, §2, §3

MDA PCa 2b cells = experiment: 2D cell proliferation assay (CellTiter-Glo); details: 10% FCS-containing growth medium, 5 days, single agent or combination
Experimental: as §1, §2, §3

VCaP cells [2] = experiment: Assessment of caspase 3 activity (apoptosis induction); details: 10 μM MDV-3100 and/or 1 μM mAb, up to 96 hours
Experimental: To acquire live cell images of cells undergoing caspase-3/7 mediated apoptosis upon treatment with different concentrations of MDV-3100, IGF mAb_1, and the combination of both agents, the CellPlayer™ 96-Well Kinetic Caspase-3/7 Reagent (Essen BioScience; #4440) was used. 50000 VCaP cells/100 μl/well were seeded and treated on the next day with the respective concentrations of both agents in growth medium in the absence of R1881. The Caspase-3/7 reagent was diluted to a final concentration of 5 μM in 100 μl per well of growth medium and added to the medium. The plate was placed within a microplate tray into the IncuCyte™ 2011A and 3 images per well were acquired every 4 hours for 7 days using the phase contrast and fluorescence channels.

VCaP cells [3] = experiment: Thymidine incorporation assay; details: 96 hours, 10 μM MDV-3100 and/or 1 μM IGF mAb_1, compared to untreated controls
Experimental: VCaP cells were treated with 1 μM of IGF mAb_1 and 10 μM of MDV-3100 and the combination of both agents and incubated as triplicates in flat-bottom 96-well plates for 96 hours at a density of 5×10^4 cells per well, in the absence of R1881. For the last 24 hours of incubation, ^3H-thymidine (0.4 μCi/well; PerkinElmer, NET355001 MC) was added. Afterwards, the plates were frozen and incubated at −20° C. for 24 h. For harvesting, the plates were thawed and 40 μL Trypsin was added to each well to detach the cell fragments. The suspension was transferred to filter plates. The plates were then washed three times with distilled water and dried at 60° C. for 3 h. 25 μL per well Microscint were added and the proliferation rate was determined by measuring thymidine incorporation (CPM; counts per minute) using a liquid scintillation counter (1450 Microbeta Wallac Trilux, Perkin-Elmer).

VCaP cells [4] = experiment: Cell cycle analysis using flow cytometry (propidium iodide); details: 24 h, 48 h and 72 h, 10 μM MDV-3100 and/or 1 μM mAb
Experimental: 4×10^5 VCaP cells were treated with 1 μM of IGF mAb_1 and 10 μM of MDV-3100, and the combination of both agents, and incubated in 6-well plates at 37° C. for 24 h, 48 h and 72 h. Subsequently, the supernatant was transferred to FACS tubes, adherent cells were detached with trypsin and collected in the respective FACS tubes. After centrifugation, the medium was discarded and the cell pellet was fixed in ice-cold 70% ethanol for a minimum of 2 h at 4° C. After removing the ethanol entirely, fixed cells were stained with propidium iodide (10 μg/ml; Sigma; P4864-10 mL) in a hypotonic buffer solution (0.1% sodium citrate, 0.1% (v/v) triton X-100, 100 μg/ml DNase-free RNase A) and incubated in the dark at room temperature for 30 minutes. Cells were analyzed using the Becton Dickinson FACS Canto II Flow cytometer and data was evaluated with the FACS Diva software.

[5] = system: AKT phosphorylation, PARP cleavage, p21, CDK2, Cyclin E, PCNA in VCaP cells; experiment: Western blot time course of AKT phosphorylation, apoptosis and cell cycle regulators
Experimental: One×10^6 and 4×10^6 cells were plated in 6-well plates and 10 cm dishes, respectively, in medium containing 10% […] and AR signaling inhibitor. […] Cell lysates were snap frozen and stored at −80° C.
Western blotting was performed loading 30-50 μg of total protein lysates on a 4-12% Bis-Tris PAG (Bio Rad) and blotting with the Bio Rad trans-Blot® Turbo system using a PVDF membrane. […] Cell cycle regulators and markers of proliferation and apoptosis were analyzed using the following antibodies: p21 Waf1/Cip1 (12D1; #2947, Cell Signaling; 1:1000), CDK2 (78B2; #2546, Cell Signaling; 1:1000), Cyclin E (C-19; sc-198, Santa Cruz; 1:1000), PCNA (#2586, Cell Signaling; 1:2000), and PARP (#9542, Cell Signaling; 1:1000).
Antibody dilutions were prepared in 5% BSA or 5% non-fat dry milk in TBS-0.5% Tween20 (TBS-T). Following washes in TBS-T membranes were incubated with a polyclonal HRP-conjugated goat anti-rabbit secondary antibody (DAKO, #P0448) for 1 hour and after further washes in TBS-T antibody reactivity was detected by means of ECL/Super ECL (GE Healthcare) and exposure on ImageQuant LAS4000. […]

VCaP cells [6] = experiment: 3D soft agar cell proliferation assay; details: single agent
Experimental: IGF mAb_2 was used for the treatment of VCaP cells in FIG. 2B. FIG. 2C (IGF mAb_1) and FIG. 2D (IGF mAb_2) show the results of MDA PCa 2b cells. […] In a 3D soft agar cell proliferation assay (FIG. 2G), VCaP cells were treated with abiraterone acetate and IGF mAb_2.

Molecule | effect on 2D cell proliferation (in words) (VCaP cells [1]) | effect on 2D cell proliferation (in words) (DUCaP cells) | effect on 2D cell proliferation (in words) (MDA PCa 2b cells) | induction of caspase 3 activity / apoptosis (in words) (VCaP cells [2]) | reduction of proliferative activity (thymidine incorporation) (VCaP cells [3]) | sub-G1 apoptotic cell population (VCaP cells [4]) | PARP cleavage ([5]; 10 μM MDV-3100 and/or 1 μM IGF mAb_1, 8 h, 24 h, 48 h and 72 h) | AKT phosphorylation (AKT-Ser473) ([5]; Western blot time course up to 120 hours) | inhibition of cell proliferation (VCaP cells [6]) [%]
IGF mAb_1: antibody against IGF ligand having a heavy chain of SEQ ID NO: 39 and a light chain of SEQ ID NO: 40; fully human IgG1 (antibody, listed as Homo sapiens, /mol_type=“protein” /organism=“Homo sapiens”) heavy: QVELVESGGGLVQPGGSLRLSCAASGFTFTSYWMSWVRQAPGKGLELVSSITSYGSFTYYADSVKGRFTISRDNSKNTLYLQMNSLRAEDTAVYYCARNMYTHFDSWGQGTLVTVSS[sequence of human IgG1 constant region not given] light: DIVLTQPPSVSGAPGQRVTISCSGSSSNIGSNSVSWYQQLPGTAPKLLIYDNSKRPSGVPDRFSGSKSGTSASLAITGLQSEDEADYYCQSRDTYGYYWVFGGGTKLTVLGQPKAAPSVTLFPPSSEELQANKATLVCLISDFYPGAVTVAWKGDSSPVKAGVETTTPSKQSNNKYAASSYLSLTPEQWKSHRSYSCQVTHEGSTVEKTVAPTECS | inhibition of cell proliferation | inhibition of cell proliferation | inhibition of cell proliferation | modest increase in apoptosis; also recorded: an increase in apoptotic events | approximately 50% | modest increase in apoptosis; also recorded: increases with time | modest increase in apoptosis | blockade of AKT phosphorylation | 
IGF mAb_2: antibody against IGF ligand having a heavy chain of SEQ ID NO: 29 and a light chain of SEQ ID NO: 30 (antibody, listed as Homo sapiens, /mol_type=“protein” /organism=“Homo sapiens”) heavy: QVELVESGGGLVQPGGSLRLSCAASGFTFSNYWMHWVRQAPGKGLEWVSGISGWSSWTYYADSVKGRFTISRDNSKNTLYLQMNSLRAEDTAVYYCARFGIDAYTKVYFDYWGQGTLVTVSS[sequence of human IgG1 constant region not given] light: DIELTQPPSVSVAPGQTARISCSGDNIPLKYVSWYQQKPGQAPVLVIHDDNKRPSGIPERFSGSNSGNTATLTISGTQAEDEADYYCQSYDYFPKFVVFGGGTKLTVLGQPKAAPSVTLFPPSSEELQANKATLVCLISDFYPGAVTVAWKGDSSPVKAGVETTTPSKQSNNKYAASSYLSLTPEQWKSHRSYSCQVTHEGSTVEKTVAPTECS | inhibition of cell proliferation | inhibition of cell proliferation | inhibition of cell proliferation |  |  |  |  |  | 96

Reference: US10377828B2, “Combination therapy for neoplasia treatment” (Boehringer Ingelheim International GmbH, priority 2013, dated 2019)
